# Assay results taken from PMC4336329 (PLoS ONE, 2015).
# In all, about 310,000 compounds went through this assay and about 2,200 (0.71%) showed an effect of 50% or more. Effects have a minus sign here. This is one part of the list.
# Biological target: human ether-à-go-go-related gene (hERG) potassium channel (human, UniProt Q12809)
# Test: primary screen, population patch clamp on CHO cells stably expressing hERG
# Sequence of human ether-à-go-go-related gene (hERG) potassium channel (Q12809 whole entry, looked up): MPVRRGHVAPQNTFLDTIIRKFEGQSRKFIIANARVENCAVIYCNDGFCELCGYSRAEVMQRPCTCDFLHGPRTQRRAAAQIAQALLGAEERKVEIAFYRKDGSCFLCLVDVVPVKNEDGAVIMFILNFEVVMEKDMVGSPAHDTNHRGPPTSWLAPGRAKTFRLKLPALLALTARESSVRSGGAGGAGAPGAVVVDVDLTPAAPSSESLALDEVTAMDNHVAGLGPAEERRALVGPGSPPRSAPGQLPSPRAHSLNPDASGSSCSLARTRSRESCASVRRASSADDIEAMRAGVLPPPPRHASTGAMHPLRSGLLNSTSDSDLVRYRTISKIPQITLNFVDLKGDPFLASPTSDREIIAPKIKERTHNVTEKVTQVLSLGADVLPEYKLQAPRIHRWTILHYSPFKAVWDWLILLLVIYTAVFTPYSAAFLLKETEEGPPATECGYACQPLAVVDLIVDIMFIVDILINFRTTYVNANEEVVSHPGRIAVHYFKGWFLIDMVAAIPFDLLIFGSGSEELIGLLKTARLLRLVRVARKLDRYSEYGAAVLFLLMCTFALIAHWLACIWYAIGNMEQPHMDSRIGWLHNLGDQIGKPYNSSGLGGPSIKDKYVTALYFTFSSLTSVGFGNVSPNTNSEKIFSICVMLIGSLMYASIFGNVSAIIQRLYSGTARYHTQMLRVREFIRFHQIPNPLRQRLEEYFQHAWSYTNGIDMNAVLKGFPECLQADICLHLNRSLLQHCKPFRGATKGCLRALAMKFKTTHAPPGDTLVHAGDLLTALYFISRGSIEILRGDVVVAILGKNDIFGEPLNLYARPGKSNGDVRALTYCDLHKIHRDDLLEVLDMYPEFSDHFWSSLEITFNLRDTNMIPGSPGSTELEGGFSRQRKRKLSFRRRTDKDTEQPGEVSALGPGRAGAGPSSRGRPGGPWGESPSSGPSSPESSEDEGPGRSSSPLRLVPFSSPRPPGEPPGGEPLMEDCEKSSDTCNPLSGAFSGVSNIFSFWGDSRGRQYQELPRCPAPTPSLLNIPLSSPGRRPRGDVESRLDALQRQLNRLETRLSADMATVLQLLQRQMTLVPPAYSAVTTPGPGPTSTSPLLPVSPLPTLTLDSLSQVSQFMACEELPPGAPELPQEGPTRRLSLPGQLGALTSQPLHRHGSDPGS
row,Compound,"hERG current change (%, negative = inhibition) at 1uM [%]"
1,O=C1CC(Nc2cc(=O)[nH]c(=O)[nH]2)C(=O)N1c1ccccc1Cl (centres unmarked),22.3
2,Cc1onc(-c2ccccc2)c1CNS(=O)(=O)c1ccccc1[N+](=O)[O-],10.1
3,Cc1ccc(S(=O)(=O)NCCC2=CCCCC2)cc1C(N)=O,-21
4,Nc1nonc1OCCOCCOCCOc1nonc1N,13.8
5,CCCCn1c(N)c(N(CC(C)C)C(=O)CSCc2ccc(Cl)c(Cl)c2)c(=O)[nH]c1=O,4.18
6,CCOC(=O)C1=C(C)Nc2nc3ccccc3n2C1c1ccccc1 (centres unmarked),9.22
7,NC(=S)N/N=C/c1ccccc1[N+](=O)[O-],9.31
8,CC(=O)Nc1ccc(S(=O)(=O)NC(C)C(=O)OCC(=O)NC2CCCC2)cc1 (centres unmarked),-4.61
9,CC(NC(=O)COC(=O)CCc1ccc(S(=O)(=O)N2CCOCC2)cc1)C1CC2CCC1C2 (centres unmarked),5.75
10,CN1CCN(c2nc(-c3ccc(Cl)s3)cs2)CC1,14.6
11,C[C@@H](NC(=O)c1[nH]cnc1C(=O)Nc1cccc(Cl)c1)c1ccccc1,5.98
12,S=C(NNC(=S)Nc1ccccc1)Nc1ccccc1,9.53
13,Cc1ccc(C(=O)O/N=C/c2c(C(F)(F)F)nn(C)c2Sc2ccc(Cl)cc2)cc1,16.8
14,Cc1ccccc1OCC(=O)NCC(=O)OCC(=O)c1ccc([N+](=O)[O-])cc1,9.19
15,CC1C2(C)OC(=N)C(C#N)(C(C)O2)C1(C#N)C#N (centres unmarked),13.5
16,CNCC(O)CN(c1ccccc1)c1ccccc1 (centres unmarked),-13.1
17,Cn1c2ccccc2c(=O)c2c(=O)n(Cc3ccco3)c(COc3ccccc3)nc21,8.25
18,O=C(/C=C/NNC(=O)c1ccc(Cl)cc1)c1ccccc1,24.3
19,Nc1nc(N2CCN(c3ccc(Cl)cc3)CC2)n[nH]1,9.77
20,Cc1ccc(CCC(=O)Nc2ccccc2C(=O)O)o1,13.4
21,CC(C)(C)c1ccc(OCc2nc(-c3ccccn3)no2)c(Br)c1,16.1
22,COc1cccc(COC(=O)Cc2ccc(S(=O)(=O)N3CCOCC3)s2)c1OC,17.4
23,CCOc1ccc2nc(SCC(=O)c3ccc(C)s3)sc2c1,13.6

row,Compound,"hERG current change (%, negative = inhibition) at 1uM [%]"
1,O=C(CCc1ccccc1)NC(=S)Nc1ccc2c(c1)C(=O)OC2,4.97
2,Br.CCCCCCCCCCCCn1ccc(=N)cc1,1.82
3,CCCCc1nc2cc(C(=O)N3CCN(c4nc(C)cnc4C)CC3)ccc2o1,4.1
4,CC(C)CN(C(=O)Cn1ccccc1=O)C1CCS(=O)(=O)C1 (centres unmarked),4.44
5,CC(C)CNC(=O)CSc1n[nH]c(=O)n1CCc1ccccc1,16.1
6,c1ccc(CCc2nn3c(Cn4cnc5ccccc54)nnc3s2)cc1,3.21
7,O=c1[nH]c(C2CCN(S(=O)(=O)c3ccccc3F)CC2)nc2c1nnn2Cc1ccc(F)cc1,13.7
8,CC1(C(=O)O)CCC(C(=O)Nc2ccc(F)cc2)C1(C)C (centres unmarked),9.47
9,COc1ccc(C(=O)OCC(=O)NC2CC2)cc1OC,7.05
10,O=C(COC(=O)CSc1cccc2cccc(Cl)c12)Nc1ncc(C(F)(F)F)cc1Cl,10.4
11,COC(=O)/C=C1\S/C(=N/N=C/c2ccccc2)NC1=O,-0.633
12,Cc1cccc(CNC(=O)c2cc(S(=O)(=O)N3CCOCC3)cn2C)c1,13.6
13,Cc1ccc(C(=O)NCC2CCCO2)cc1N1CCCC1=O (centres unmarked),6.37
14,CCC(Cc1ccccc1)NS(=O)(=O)c1c(C)nc2sccn2c1=O (centres unmarked),4.12
15,O=C(NC1CCCC1)C(c1ccncc1)N(C(=O)Cn1nnc(-c2ccccc2F)n1)c1cccc(F)c1 (centres unmarked),2.57
16,O=C(O)c1ccccc1N1C(=O)C2C3CCC(C3)C2C1=O (centres unmarked),5.59
17,CC1CCc2sc(C(=O)N(C)CC(=O)Nc3ccc(N4CCOCC4)cc3)cc2C1 (centres unmarked),2.65
18,CC1CCCCN1CC(=O)Nc1ccc2c(c1)OCO2.O=C(O)C(=O)O (centres unmarked),0.25
19,Nc1ccc2c(c1)Cc1cc([N+](=O)[O-])ccc1-2,16.8
20,Cc1occc1-c1nnc(SCC(=O)c2c(N)n(Cc3ccccc3)c(=O)n(C)c2=O)n1C,11.7
21,COc1ccccc1-c1c(C)c(C)nc(N)c1C#N,6.92
22,Cc1ccc(NS(C)(=O)=O)c(C(=O)c2ccccc2)c1,-8.81
23,Cc1ccccc1CC1SC(N)=NC1=O (centres unmarked),10.2

row,Compound,"hERG current change (%, negative = inhibition) at 1uM [%]"
1,S=c1nc(-c2ccc(Cl)cc2)[nH][nH]1,17
2,CC(=O)N(Cc1ccc(F)cc1)C1=C(NCCc2ccccc2)C(=O)c2ccccc2C1=O,6.84
3,COc1cc(CC(=O)Nc2ccc(Cl)c(C(F)(F)F)c2)cc(OC)c1OC,4.63
4,Cc1ccc(NC(=O)CSCC(N)=O)cc1C,9.86
5,Cc1ccc(C(=O)N2CCN(S(=O)(=O)c3ccccc3[N+](=O)[O-])C2)cc1,0.617
6,O=C1c2ccccc2OC2(C=Cc3ccccc3O2)N1Cc1ccccc1 (centres unmarked),6.13
7,CC(NC(=O)c1ccc(Cl)c(S(=O)(=O)N2CCCCCC2)c1)c1cccnc1 (centres unmarked),-7.26
8,COc1ccc(S(=O)(=O)N2CCc3ccccc32)cc1C(=O)O,5.65
9,CCc1ccc(NC(=O)CCNC(=O)Cn2ccc3ccccc3c2=O)cc1,23.2
10,O=C(N/N=C/c1ccc(O)c(O)c1)c1cc(-c2ccccc2)nc2ccccc12,9.97
11,CCN1C(=O)c2ccc(C(=O)Nc3ccc(O)cc3C)cc2C1=O,19.6
12,N=c1oc2c3c4c(cc2cc1C(=O)Nc1ccccc1)CCCN4CCC3,-5.12
13,O=c1cc(NC2CCCCC2)c2ccccc2o1,7.03
14,CC(C)CCN1CCN(Cc2coc3ccccc3c2=O)CC1CCO (centres unmarked),11.5
15,O=C(O)CCCC(=O)Nc1ccc2c(c1)oc1ccccc12,17.7
16,Cc1ccc(NC(=O)CSCC(=O)Nc2cc(Cl)ccc2N2CCN(C)CC2)cc1,4.92
17,CC(=O)Nc1cccc(C(=O)OCC(=O)c2ccc(S(=O)(=O)N3CCCCC3)cc2)c1,3.22
18,O=C1NCC(COc2ccc([N+](=O)[O-])cc2)O1 (centres unmarked),-26.7
19,O=C(COc1cccc(F)c1)Oc1ccc(C(=O)c2ccccc2)cc1,9.25
20,CCCn1c(CCNC(=O)c2ccco2)nc2ccccc21,8.35
21,COc1ccc(N2C(=O)C3C4C=CC(C4)C3C2=O)c(OC)c1 (centres unmarked),14.7
22,N#Cc1ccc(C(=O)Nc2ccc(N3CCN(C(=O)c4ccco4)CC3)cc2)c(F)c1,9.97
23,Cc1cccnc1NCC(O)COc1ccccc1 (centres unmarked),-18.7

row,Compound,"hERG current change (%, negative = inhibition) at 1uM [%]"
1,COc1ccc(S(=O)(=O)N2CCN(CC(=O)Nc3cc(Cl)ccc3Cl)CC2)cc1,5.89
2,COc1ccccc1-c1cc(C(=O)N/N=C/C=C/c2ccccc2[N+](=O)[O-])c2ccccc2n1,10.3
3,COC(=O)C1=C(c2c(C)noc2C)C[C@@H]2CC[C@H]1N2C(=O)NC1CC1,14.3
4,O=C(COc1ncnc2c(Cl)cc(Cl)cc12)N1CCN(S(=O)(=O)c2ccccc2)CC1,9.74
5,Cc1ccc(NS(=O)(=O)c2ccc3c(c2)oc(=O)n3C)c(C)c1,15.5
6,COc1cc(S(=O)(=O)N(Cc2cccc(OC)c2OC)CC2CCCO2)ccc1-n1cnnn1 (centres unmarked),10.9
7,O=C(CC(NC(=O)C(F)(F)F)c1ccccc1)Nc1nnc(CCc2ccccc2)s1 (centres unmarked),2.53
8,COCCNC(=O)c1ccc2nc(Cc3ccc(OC)c(OC)c3)oc2c1,8.34
9,Cc1ccc(C)c(S(=O)(=O)Nc2cc(C)on2)c1,16.7
10,CN(C)S(=O)(=O)c1ccc(C(=O)OCC(=O)Nc2ccc3c(c2)OCO3)cc1,5.74
11,COc1ccccc1N(CC(=O)Nc1ccc2c(c1)OCO2)S(=O)(=O)c1ccccc1,13.4
12,Cc1c(Cl)cccc1NC(=S)NC1CC1,5.59
13,CCOc1ccc(S(=O)(=O)Nc2cccc(N(C)S(C)(=O)=O)c2)cc1,8.38
14,Cc1ccccc1CCNCc1cc2cccc(C)c2[nH]c1=O,-1.92
15,COc1ccc(C(=O)O)cc1S(N)(=O)=O,8.32
16,COc1ccc2[nH]cc(C(=O)NCCc3ccccc3)c(=O)c2c1,9.28
17,O=C(Nc1ccncc1)C1CCN(S(=O)(=O)c2ccccc2C(F)(F)F)CC1,8.35
18,O=C(CCN1C(=O)COc2ccccc21)NCCCN1CCCC1,10.4
19,CCOc1ccc(NC(=O)Nc2c(C)n(C)n(-c3ccccc3)c2=O)cc1,27.8
20,CC1(C)CC(=O)C2=C(C1)OC(N)=C(C#N)C21C(=O)N(Cc2ccccc2Cl)c2ccccc21 (centres unmarked),16.5
